# The whole screen tested about 220,000 compounds, of which about 5,700 (2.6%) were called active. Inconclusive means that the source gave no clear call. Such entries were picked first, then a sample of the others. The call rests on the fitted dose curve; in most records, active means well fitted inhibition curve with a large enough effect; inconclusive means small, poorly fitted or top-dose-only effect; inactive means no such curve, though single readings can be large or run the other way. Potencies of inconclusive entries are doubtful fits and often do not repeat.
# Molecular target: Lysine-specific demethylase 5B (Homo sapiens) (UniProt Q9UGL1)
# Experiment: Primary screen for KDM5B Histone Demethylases FDH-coupled qHTS; further: nearly all actives have a fitted effect of over 70% in size; on activity change, negative = inhibition: 0% is about no effect
# Conditions: FDH-coupled NADH fluorescence (FDH is formaldehyde dehydrogenase); activity change, negative = inhibition: at 57.7 µM (top of the series) unless noted
# Method in brief: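 KDM5BΔAP (200 nM final) in 50 mM HEPES pH 7.5, 0.01% Tween-20 was preincubated 10 min at RT with compound over a concentration range. Substrate mix (H3K4me3 12.5 µM, α-KG 25 µM, Fe²⁺, ascorbate, NAD⁺, FDH) was added, and NADH fluorescence change over 30 min gave dose-response curves.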
# Potency means the concentration at half of the fitted maximal effect; tags describe the fitted curve by direction and shape.
# Sequence of UniProt Q9UGL1 (Q9UGL1 whole entry, looked up): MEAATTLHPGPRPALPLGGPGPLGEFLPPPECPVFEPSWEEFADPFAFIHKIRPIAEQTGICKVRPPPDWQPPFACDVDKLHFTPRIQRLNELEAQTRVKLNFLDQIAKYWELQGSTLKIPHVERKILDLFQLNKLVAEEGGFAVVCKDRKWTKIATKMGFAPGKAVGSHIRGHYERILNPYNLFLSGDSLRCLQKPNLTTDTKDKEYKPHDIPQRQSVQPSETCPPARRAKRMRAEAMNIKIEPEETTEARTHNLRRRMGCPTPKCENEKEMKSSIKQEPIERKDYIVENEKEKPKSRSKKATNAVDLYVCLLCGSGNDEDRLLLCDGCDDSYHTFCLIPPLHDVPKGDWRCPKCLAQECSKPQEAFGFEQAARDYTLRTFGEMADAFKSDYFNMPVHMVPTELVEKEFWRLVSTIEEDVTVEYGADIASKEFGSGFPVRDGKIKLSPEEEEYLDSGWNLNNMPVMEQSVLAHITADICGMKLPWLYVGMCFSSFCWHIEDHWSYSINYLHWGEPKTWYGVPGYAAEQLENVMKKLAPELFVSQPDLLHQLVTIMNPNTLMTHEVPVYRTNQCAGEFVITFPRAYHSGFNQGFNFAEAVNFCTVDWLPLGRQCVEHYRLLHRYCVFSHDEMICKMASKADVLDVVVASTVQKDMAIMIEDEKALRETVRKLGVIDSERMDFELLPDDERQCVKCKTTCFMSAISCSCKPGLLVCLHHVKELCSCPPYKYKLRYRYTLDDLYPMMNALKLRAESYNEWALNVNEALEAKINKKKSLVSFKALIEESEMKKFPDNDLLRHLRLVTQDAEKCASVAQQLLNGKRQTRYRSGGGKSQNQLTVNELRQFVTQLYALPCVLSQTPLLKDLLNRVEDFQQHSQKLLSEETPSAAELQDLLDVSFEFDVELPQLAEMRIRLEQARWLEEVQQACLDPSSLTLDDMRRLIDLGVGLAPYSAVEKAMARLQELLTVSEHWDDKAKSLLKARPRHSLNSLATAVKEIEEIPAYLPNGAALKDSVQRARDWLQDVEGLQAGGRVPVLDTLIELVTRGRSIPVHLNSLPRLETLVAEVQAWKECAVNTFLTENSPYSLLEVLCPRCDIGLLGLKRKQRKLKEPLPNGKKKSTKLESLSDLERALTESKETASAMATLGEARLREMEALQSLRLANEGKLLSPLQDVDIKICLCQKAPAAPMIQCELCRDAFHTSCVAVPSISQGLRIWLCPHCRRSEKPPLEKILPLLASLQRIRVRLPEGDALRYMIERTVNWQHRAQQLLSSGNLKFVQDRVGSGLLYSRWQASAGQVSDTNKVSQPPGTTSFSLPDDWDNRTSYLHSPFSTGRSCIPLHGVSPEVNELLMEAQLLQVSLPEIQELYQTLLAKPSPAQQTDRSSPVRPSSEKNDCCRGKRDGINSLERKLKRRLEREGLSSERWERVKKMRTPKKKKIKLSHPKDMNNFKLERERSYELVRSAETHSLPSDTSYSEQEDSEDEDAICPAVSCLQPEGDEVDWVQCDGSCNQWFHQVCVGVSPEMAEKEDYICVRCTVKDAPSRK
Compound,Potency,"activity change, negative = inhibition"
COc1ccc(OC)c(CCNc2ncnc3onc(-c4ccc(Cl)cc4)c23)c1,"inconclusive: 25.1 µM [inhibitor, single point]",–
COc1ncccc1-c1cc(-c2c(C)noc2C)c2cncn2c1,"inconclusive: 39.8 µM [inhibitor, partial curve, poor fit]",–
Cn1c(=O)c2cc(S(=O)(=O)NC(Cc3ccccc3)C(=O)Nc3ccc(F)cc3)ccc2n(C)c1=O (stereo unspecified),"inconclusive: 15.8 µM [inhibitor, partial curve, poor fit]",–
CCCCCCNC(=O)c1ccc(Nc2ccc(-c3ccc(C)cc3)nn2)cc1,inactive,–
CCOC(=O)c1cccc(NC(=O)c2cc3sccc3n2Cc2ccc(Cl)cc2)c1,"inconclusive: 31.6 µM [inhibitor, partial curve, poor fit]",–
O=C(Cc1cccs1)N1CCCn2cc(-c3ccccc3F)nc21,"inconclusive: 20 µM [inhibitor, partial curve]",–
CCOC(=O)c1sc2nc(C)nc(N3CCN(c4ncccn4)CC3)c2c1C,"inconclusive: 22.4 µM [inhibitor, single point]",–
COCCn1c(=O)[nH]c2cc(C(=O)NCc3ccccc3Cl)ccc2c1=O,"inconclusive: 25.1 µM [inhibitor, single point]",–
O=C(Cc1ccccc1)NCC1CN(C(=O)Cc2cccc(Oc3ccccc3)c2)CC12CN(c1ccccc1)C2 (stereo unspecified),"inconclusive: 25.1 µM [inhibitor, partial curve]",–
Cc1noc(C)c1-c1cnc(Nc2ccc(Cl)cn2)c2c1CCO2,active: 28.2 µM,–
Oc1ccc([S+]2CCCC2)c2ccccc12,"inconclusive: 20 µM [inhibitor, partial curve, poor fit]",–
CCOc1ccc(NC(=O)c2c(Nc3ccc(OC)cc3OC)sc(C(=O)c3ccc(Cl)cc3)c2N)cc1,"inconclusive: 17.8 µM [inhibitor, single point]",–
CCC(=O)Nc1nc(C)c(-c2csc(Nc3ccc(OC)cc3)n2)s1,"inconclusive: 22.4 µM [inhibitor, partial curve, poor fit]",–
CC(C)(C)c1ccc(OCCC(=O)Nc2ccc(N3CCOCC3)cc2)cc1,inactive,–
CC(=O)N1CCC(Cc2ncc(C)n2C2CC2)C1 (stereo unspecified),inactive,–
CC(=O)Nc1ccc(NC(=O)CN2C(=O)NC3(CCS(=O)(=O)CC3)C2=O)cc1,"inconclusive: 7.08 µM [inhibitor, single point]",–
COc1ccc2[nH]c3c(c2c1)CCNC31CCN(C(=O)C(C)C)CC1,"inconclusive: 15.8 µM [inhibitor, partial curve, poor fit]",–
CN(C)C(=O)c1cnn2ncccc12,active: 31.6 µM,–
COC(=O)c1ccccc1NC(=O)O[C@@H]1CO[C@H]2[C@@H]1OC[C@@H]2Nc1nccc(-c2ccc(N(C)C)cc2)n1,"inconclusive: 2 µM [inhibitor, partial curve, poor fit]",–
O=C(CC1CCCCC1)N1CCC2(CC1)CC(N(Cc1ccc(F)cc1)C1CC1)CCO2 (stereo unspecified),inactive,–
O=C(CCC1CCCC1)N1CCCCCC1c1nc(-c2ccncc2)no1 (stereo unspecified),inactive,–

Compound,Potency,"activity change, negative = inhibition"
CCc1nc2nccc(-c3ccc(Br)cc3)n2n1,active: 15.8 µM,–
Cc1ccc(CN2C(=O)[C@@H]3C[C@@H](O)CN3C3(CN(Cc4ccccn4)C3)C2=O)o1,"inconclusive: 39.8 µM [inhibitor, partial curve, poor fit]",–
CCC(CO)NC(=O)C(=O)Nc1c2c(nn1-c1ccc(F)cc1)CSC2 (stereo unspecified),"inconclusive: 31.6 µM [inhibitor, partial curve, poor fit]",–
CCCCCCCc1c(C#N)c(N)[nH]c(=S)c1C#N,"inconclusive: 39.8 µM [inhibitor, single point]",–
CCOC(=O)c1cnc2ccccc2c1N1CCCC(CO)C1 (stereo unspecified),inactive,–
CCOC(=O)c1cc(S(=O)(=O)NCc2ccccc2)[nH]n1,"inconclusive: 6.31 µM [inhibitor, partial curve, poor fit]",–
CCOC(=O)c1cccc(NC(=O)N2CC[C@@H](CC(=O)Nc3nccs3)[C@@H](CC)C2)c1,inactive,–
COc1ccc2c(C)c(CCC(=O)N3CCCCC3)c(=O)oc2c1C,"inconclusive: 28.2 µM [inhibitor, partial curve, poor fit]",–
CCN(CC)C(=O)CSc1nc2ccc(NC(=O)c3ccc(C)cc3)cc2s1,"inconclusive: 25.1 µM [inhibitor, single point]",–
Cc1cccc(N(C)c2ccc3nnc(-c4cc(C#N)ccn4)n3n2)c1,"inconclusive: 28.2 µM [inhibitor, partial curve, poor fit]",–
CC(NC(=O)C1CCOCC1)C(=O)O (stereo unspecified),inactive,–
CCN(CC)S(=O)(=O)c1ccc2nc(NC(=O)c3cccnc3)sc2c1,"inconclusive: 31.6 µM [inhibitor, single point]",–
CC(C)CCC(O)(c1ccccc1)C(CN1CCOCC1)c1ccccc1 (stereo unspecified),"inconclusive: 39.8 µM [inhibitor, partial curve, poor fit]",–
Cc1cc(C(=O)NCc2ccncc2)c2c(C3CCNCC3)noc2n1,"inconclusive: 56.2 µM [inhibitor, partial curve, poor fit]",–
O=C(c1ccn[nH]1)N1CC=C(c2cnc3cnc(-c4ccccc4)cn23)CC1,"inconclusive: 39.8 µM [inhibitor, partial curve, poor fit]",–
O=C(Cn1c(=O)n(Cc2ccco2)c(=O)c2ccccc21)Nc1ccc(Cl)cc1Cl,–,inconclusive: -33% [inhibitor]
CN(C)S(=O)(=O)c1cc(C(=O)NCc2coc(-c3cccs3)n2)ccc1Cl,inactive,–
CC(=O)Nc1ccc(Nc2cc(C)nc3c(-c4ccc(C)cc4)cnn23)cc1,"inconclusive: 22.4 µM [inhibitor, single point]",–
CC1=C(C(=O)Nc2ccccc2)C(c2ccncc2)n2nc(SCc3ccccc3Cl)nc2N1 (stereo unspecified),"inconclusive: 1.12 µM [inhibitor, full curve, poor fit]",–
CCc1nnc2ccc(NC(C)C)nn12,"inconclusive: 17.8 µM [inhibitor, partial curve, poor fit]",–

# Source: PubChem BioAssay AID1347165 (National Center for Advancing Translational Sciences (NCATS), 2019)
